# Source: the supplement of paper PMC10681739
# ± gives the standard deviation of the averaged measurements. Over roughly 4,000 sequences, “arbitrary fluorescence units” has its median near 830; the highest 2% begin near 6,500. The list lacks most of the strong results.
# Target: RUNX1 (UniProt Q01196)
# Assay: RUNX1 binding intensity (PBM fluorescence), RUNX1 alone (arbitrary fluorescence units); higher = stronger binding
# Details: RUNX1 concentration 2 nM; ETS1 concentration 0 nM
# Procedure: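 gcPBM on 36-bp genomic-derived probes (partner site mutated) containing one RUNX1 site and no ETS1 site. Recombinant human RUNX1 (2 nM) was incubated alone or with ETS1 (25 nM) and detected by anti-RUNX1 antibody fluorescence. Values are medians over 4 replicate spots (not normalised). The probes sit in constant array flanks that are not printed.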
# 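Also: Full-length recombinant human RUNX1 bound to double-stranded DNA microarray spots, detected with an Alexa488-labelled secondary antibody after the anti-RUNX1 primary, read as scanned spot fluorescence.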
# UniProt Q01196, sequence (Q01196 whole entry): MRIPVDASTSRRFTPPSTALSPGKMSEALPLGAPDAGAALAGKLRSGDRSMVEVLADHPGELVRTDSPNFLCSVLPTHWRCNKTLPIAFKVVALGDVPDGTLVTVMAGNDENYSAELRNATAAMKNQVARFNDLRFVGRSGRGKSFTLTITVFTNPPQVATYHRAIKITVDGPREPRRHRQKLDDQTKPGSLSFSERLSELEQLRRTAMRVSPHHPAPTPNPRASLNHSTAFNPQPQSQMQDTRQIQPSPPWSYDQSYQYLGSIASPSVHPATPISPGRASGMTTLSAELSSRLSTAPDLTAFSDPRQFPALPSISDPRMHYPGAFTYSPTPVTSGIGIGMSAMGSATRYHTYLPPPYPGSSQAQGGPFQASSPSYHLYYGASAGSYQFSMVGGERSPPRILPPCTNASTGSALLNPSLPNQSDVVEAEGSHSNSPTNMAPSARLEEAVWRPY
row,Sequence,RUNX1 binding intensity
1,TCGCCTGCGTTGCGCTGGTTGTGGGCTTTCAGCGGC,679
2,GAAGGGACGAAGCCTGAGAACTGTGGTCTCCTGAAG,719
3,AGCAGCAAGTATGTTGAAAGTCATAACCACAGCAAA,741
4,CTCTTCTCAGCAAGGGGCTGTGGGATGTAGGATTCC,797
5,GAGAGAGTGCCGCGTAGGGGTCACCGCGAGTCGCAA,701
6,GCTGTGGGCGGTGCAGGAGGGATCCAGAAGAGACGA,826
7,CAACTCACCTCCTCTGGCAACAACCACTAATCCACT,1350
8,AAGGGCAAAGCCACAGCCACTTGCGCCCAGCGCTTC,737
9,ACCCACCCGAAAGTCCTCCTGGCCCACAAGCTCCGC,1080
10,AAGATGGCGGCCGCAGAGCCGCCCACCTCCCCCTCC,819
11,AAGCCACTGCCTGGTGACCCAGTGGTAAACACTTGA,722
12,CGAGTCAGCAAATCACAGCTCTGCGGGTGGGCTCCT,739
13,CGTTCGCGGTTCCTCTCGGCCCCGTATGTGACTGTT,1230
14,CTGCCATGAAGGGTTCTGGTTTGAGGTCTCCTCTTA,741
15,CCACCGTGCGGTAAACTGCACCTCCTCACTTAGCAC,1800
16,CGAGCGCATGATGGGGTTGTCGACCGCGCGGCGAGC,616
17,TCCCTGGAGCGGTTTTAGGGGGCCGCCTCCTTGGCC,775 ± 21
18,GACGGCCGCTTGTGGCGCGGGACTTGCTGCCTGGCC,762
19,CTGTCCGCTACATACGGGACCTGCGGGACCGCCGAT,860
20,CCCGGACCGCAGGCCGGACTACAATTCCCGTCGGCC,947
21,TGTTACCACTGTTAGACTAGAGAGCATGCTGTTGTT,841
22,GCCCGTAAGCGCGACGCTGGAGCTGCGGGGTTACCA,818
23,CTCCCGTACGCTAACGTCTGGCAAACCACATTGCCC,1010
24,TATCAATAAGGACGTACAATCACCAAACCACAAGCC,1120
25,GAGCCGAAAGTGAAGGAGGGCTTGTGGGAGATGGAG,769
26,CCAGAGCACCTCCTACACGCACCACAACCTGAAAAC,1470
27,CCAGAGCAGCATGTTCTGCTGTGGCTAGATAAGCCC,665

row,Sequence,RUNX1 binding intensity
1,TCCGTAAATAGATAATATCTAGTTAAACCTCAAAAT,840
2,GTGGCGGGGCGGAGGTTCACATGTGTGGTATGTAGA,841 ± 28
3,AGGCTTGTGGCTAGACCAGGGTCTTGCTGCTGAAGA,708
4,TCGCTCTGATAACCGCATCCCGGTTTTCGGGACGAC,3400
5,TCCACAGCAAATCCCCTGGTCTGTGGCGCCTCTGAT,772
6,GCGGCGCTGCGGGCCGAGGTGGGGCCGGGAATGTCA,744
7,CTGGGGACGAAGCCTGAGGTGTGTGGTTTTGTTAAC,904
8,TGGTAACCCCGCAGCTCCAGCGTCGCGCTTACGGGC,716
9,GACAGCAAGTGACCTCAATTTCCCCGGCCACAGAAA,834
10,CCTTAACGTTAAAACCTCAAGCTTCCAGAGCATGTC,935
11,GTCCCCCTTACGGCTGCAGGTTGAGGTTTGGAACCT,706
12,CCTGCTCTGGGGCGGTTAGCAACTTGCTGCCCTGGC,757
13,AACCTCTAAGGAATCGGTGTGTGCACCCACATGCTG,757
14,ACGCAAACCACACCAGCCACGGACAGGCAGCAAGAG,1200
15,ACATGGTCTCGCTTGCTGTTTACACCACAGAAAGCT,895
16,CTGCGGTAAAAATAGGCAGTGGGGGAGGGAGTTCAC,856
17,CGAAAAACCTCAGGGGAGCCATGGGGGCAGCAAGGG,792
18,TGGGCAAGATCTCCTGGAAGTGGTTAAAAAAAATTA,787
19,CTCCGCGCAGCCGCAGAGACCCTTGGGAATTGTGGA,725
20,GCACTCGGCTGTTGGCCGTAGTTGTGGTTATAGTTG,921
21,TTGCTGTCATCGTGTTCTCCCAGCTAAGCCACAGGA,803
22,CCACTGCTTCGGCCTTCTCTGCTGGCTGCGGGGAGC,850
23,TATCTCCTCCTGCAGGTCTGTTCTTTACCGCCTGAA,949
24,GGCCGAGGACCGCAGAGCCCCGTAAGCCTAGCCCCA,1050
25,ACGTTTCGGGGTTGCCGGGCCAGCGGTTTCGGGCGC,836
26,GACAGCCGCATCTGCTGAGTCATAAGGAGGTGGGCC,733
27,TGTCGTACATCTCCGCCTTGTGGGCACAATCTGATT,834

row,Sequence,RUNX1 binding intensity
1,GCCAACCACAACATGAGGAATACATGTCCTCTTCAG,1800
2,GGACGCTTCAGGTGGAAGGGAGCTGTTGCGGGGCTT,661
3,TGTCATCCCGGCAACTGATAACAAGACCGCGAGTCA,827
4,GGCCCGGCCGTAAGAAGCCACCTCCCCCGCACGCGT,796
5,TGTAGTCAGGTGGTTAGGCAGGTTGTTTCTCACGGC,819
6,CTCCGTGCCACCACAGCCACTTGCTGCCTTGAAAAC,1170
7,TAGACCAGTGTGGTCAGCCGCCCCTGCCTAAGCTGC,987
8,CAGCCAGCCAGGGAGCAGGGGCTGCGGGGCTGACAG,737
9,CAGAGCAGAGAGGAGGTGGTGGTGGCCACAGTCCCA,735
10,CACCTCCTATCGCTACATAACAAATTACCACAGACT,2240
11,TGCCAAGAGTTCCCCGCGGACCCCGCAACAGCTCCA,890
12,ATGACTTAGCAACCTCCTGACAACCACTACATTGTC,932
13,TCCAGCGCCGCAGGGCCAACGAGAGCGCTTCAGGCC,624
14,GTCGTCAGCGTCGTCCTGTCAGCGGTCGGCAGAGCC,807
15,ACCTGAGCAGGCAGTAGCTGAGGTCGCGGTGCAGCA,624
16,TAGCCTTGTGTGGGAAGCAAATCGTGTCTCAGAGGG,753 ± 76
17,CGCCGCGGTAGCAGGGCGCAGGCTGGAACCTTTCTT,724
18,GTTGGTCTCCTCTAGACTCTCGTGGCCACACCGTTC,872
19,GCACAGCGGTCTATTTCACCTCAGCAAGATTCCCCC,874
20,ACCTGAAGGGCGGGGGCGTGGCGAGGTACCGCAGAC,1140
21,GCGGAGCCCGACGGTAAAGACCCCGCAGCCCTGCTC,779
22,CACCTTTGTTGTGGTTTGTAAACGGAGACAAAAACA,1460
23,AAACTTGCGGTGGAGGAGAGCTGAGCACTGCCTATG,1260
24,AAGTGGTTGCATATAGGGCGAATCGGCTCCCTGCTA,748
25,ATGGCGCCGACCGCAGCCACTTGCGTGATCCGCAGG,3730
26,TCCTCCGGGTGCCCAGCGGCTGCTGAGATACCGCGG,724
